Assay results taken from the RNAGym collection of RNA variant scans (doi:10.7554/elife.90254).
The source gives no read counts; variants with many changes may rest on few reads.

B1: LINE1-full (parent)
chain: UACGUAGGUGGUUUUCCCCUGAUAGUGCUAAGGGGGCCUGGAAGUUUGGACUGGGCAGAGCUCAACACAGCGUGGCAAAGUGGCUGUGGCUAGACUGCCUCUCUGGAUUCCUCGUCACUCAGCAGGGCAUCUCUGAGAGAAAUGCC

Variants of: B1
Experiment: self-cleavage, relative activity (ratio to wild type); higher = more cleavage; in vitro, sequencing; the parent is a self-cleaving ribozyme

Variant | self-cleavage
G11A G33U A57U U62C G80A | 0.02
U9C A64G A94U A136U | 0.4
U9C U13A U52A A57G U85A A129G | 0.44
U12C A50U A59G U143A | 0.24
G10A U52A G72A | 0.62
U9C G48A U130C | 1.64
U9C A77G A136U | 2.87
U9C U29C G32C G88A | 0.29
U9C C19U U52C U62C U134C | 0
U9G G11U U91C | 0.87
U12A U20A U85C | 0.39
U12C A57G U62C A124G | 0.11
U12C A24G G36A A65G A69G U119C A124U A140G | 0
U9C U29C A43G A124G | 1.58
U9C U15C A141G | 1.87
U9C U26A U87C | 0.24
U9C U47A A57G U102C U132A | 0.97
G11A U26C U39A | 0.58
U9C U12C A129C | 1.28
U9C U14C U100C A129U | 0.54
U9C U23C A43G | 0
U9C U102C A117C | 2.63
G11A A64G A79G A117G A140U | 0.73
U12C A59U A64G U73C | 0.21

Variant | self-cleavage
U9C A50G A64G U87A U115A A140G | 2.63
U9C A79G A124G U143C | 0
U9C A59G A140U | 0.21
U9C U29C U109C | 0.97
U12A U39A G44U | 0.92
U9C U112C A136G | 1.51
U9C U15C U87C | 0.14
G10A U108C A136U | 0.99
U9C A79U U119A A140G | 0.37
U9G U14C A42U U85C A117G | 0.21
U9C A59G A64U C145G | 0.56
U9C A43U U96C A140G | 0
U9C U87A U115G | 0.17
U9C U26C A138U A141G | 1.13
U9C A57U A79G A92G U102A A140G | 0
U9C A124G U134C | 0.67
U9C U87C A136G | 0
G10A A31U U52A G82A | 1.43
U12A C17U G105U | 0.61
U9C G34A A77G U115A | 1.98
U9C U15A U29C | 0
U9G A50U U96C | 0
U9C U39C A57G A138G | 0.63
U9C U45A A140G | 1.02

Variant | self-cleavage
U9C U13G A31U A78U | 1.04
U12A A65G U100C C110A U132C | 0.18
G11A G33C U62C | 0.08
U9C U15C A94G G97A | 0.12
G11A U14C A57U | 0.11
U9C A117G U134C | 1.25
G11C C18U A50G U109C | 0.48
U9C A59G U96C A141G | 0
U9C U15A G126U A141G | 0.75
G10A A31C U47C | 1.94
U9C C68U A107G A136G A141G | 0.51
U12C A31C C113A C128A U143C | 0.87
U9C U12C U96C | 0.21
U12C A50G U85C U109A | 0.25
U12C A59G A107G C113U U132C | 0
U12A A31G U85C G93A | 0.32
U9C U39A U73C A117G | 0
U12C A24G A57G C116U | 0.98
U12C A57G G106A A142G | 1.14
U9C U12C U119C | 1.31
U12A U15C A30U | 1.18
U12C A43G U100A A140G | 1.74
U9C A59U A141G | 0.56
U9G G10U C56A | 0.12

Variant | self-cleavage
G11C G34A U96C | 0.1
G11A C28G A64G U85A U143C | 0.03
U12C A57G G58C U73A G114A | 0.03
G11A U45C U47C G58U | 0.04
U9C A50G A79G U143A | 0.99
U9C U81A U91A A94G A142G | 0.63
U12A U14C U23A A78G | 0.31
U12C A30G A124U A140G | 1.45
U12A A67G U109A | 0.71
U9G C19U U26C | 0.93
U9C A129G U143C | 0.88
U9C A65G A136G | 0
U9C U20A U73A A140G | 2.35
U12C A30G G53A A94U U100C | 0.44
U9C A78G U112C | 1.13
U9C A64G U104C A140G A142G | 0
G10A U39A G93A A129G A141G | 0.03
U12C A42G U119A | 0.23
U9C U13C G137U | 0.53
G10U A94G U102A G105A A124U | 0.2
U12C A22G A79G A94G U143C | 2.12
U9C U39C C61A U81A U115C | 0.13
G10A U13C G21A U46C | 0.78
U9C U13C A57G G75A G125U | 0.23

Variant | self-cleavage
U12A U15C A65G | 0.14
U9C U12C A31G U73A | 1.23
U12C A59G C90A | 0.07
U9C U26A U62C U96C U100A A107G | 0
U12C A57G G72A | 1.55
U9C U29C G55A A78G C133U A140U | 0.45
U12A U15C U39C C76U U96C | 0.22
U9C U39C U46A U119C G135U | 1.28
U12C A24U G35A | 1.01
U9C A42G U47C G55U A64G A78G | 0
G10A A57U A67U U91C C99U | 0
U9C G35C U39C A69U A94G U115A | 0.48
U9C U45C A59U G125A | 0.65
U12A U20C U62C A92G A136U | 0.11
U9G U73C A142G | 1.46
G11U U91A U100C A140G | 0.48
U9C G36A C95A U102C | 0.07
U12A A22G U45A U91A U112C U130A | 0.67
G11C U47A A141G | 1.79
U9C U13C U26A A43U A57U A65G U134C | 0
U12A A43U U73C A107U C113A | 1.2
U9C C28A A42G A78U | 0.99
U9C U20C A67U A94C G126A A140G | 0.12
G10A A77G G135A | 1.91

Variant | self-cleavage
U12C A22U A30U A42G A43C A79G A138U | 0
U9C C123U U130G | 1.6
U12A C113U U130G | 1.26
U9C A78G A124C G135U | 1.02
U12A U62C U132C | 0.18
U9C C19U U96C | 0
U9C G21A U87A U112C | 0.1
U9C A64U A79G U85C U108C | 0.16
G10A U20A U47C | 1.11
G11A C19U U134C | 1.25
U9C A79G U119C | 1.47
U9C A117C A136C | 2.4
U9C U20A U96A U119A | 0.27
U12C A43G U52C U109C | 1.02
G11A G34A A67G U109C | 0.15
U9C A64G G70A A136G A140G | 0.34
U9C U26A C71U A94G A117G | 0.51
U12C A22G U47C | 0
U9C U26C U132C | 1.12
U9C U52C U62A A79G A142G | 0.09
U9G G35A U100C | 0.99
U9C U47A A140G | 1.73
G11A A24G A59G | 0.23
G10A U62C U130C | 0.07

Variant | self-cleavage
U12A A42U A43G | 1.07
U9C U52A U87C | 0.73
U12A C38U U112C | 1.27
U9C A124U U143A | 1.41
U9G U46A A64G U96A U115C U119A A138G | 0
G11A U12G U45C | 1.19
G11A U14A U134C A138G | 0.84
G10U G74A U85C A140G | 0.08
U9C U96G G125C | 0
U9C A64G A94U | 0.29
U9C C16U U47C U108C | 1.15
U9C G72A A78U | 1.86
U12A U104C U134A | 0.91
U12A C19U U91A | 1.33
U12C A24G U45C | 1.31
U9C G27A U29C | 1.58
G11A A30U U109C A141G | 1.25
U9C U46C U96G | 0
G10A U87A U96C | 0.08
U9C A43G A59G A121U U134C | 0
U9C U85C A92U | 0.43
U12C A57U U100C A107U U108C | 0.63
U9C U100C U104C A142G | 1.91
